Measured values published in PubChem BioAssay AID686979 (National Center for Advancing Translational Sciences (NCATS), 2013).
The campaign covered roughly 420,000 compounds. About 50,000 (12%) were called active. The shares of active, inactive and inconclusive entries below differ from those in the screen. Calls come from the whole dose curve; as a rule, active = well fitted inhibition curve with a large enough effect; inconclusive = small, poorly fitted or top-dose-only effect; inactive = flat fitted curve, though single readings scatter. No potency is given beside an inconclusive call; the fits are too rough.

Assay: qHTS for Inhibitors of human tyrosyl-DNA phosphodiesterase 1 (TDP1): qHTS in cells in presence of CPT; note: nearly all actives have a fitted effect of over 55% in size
Conditions: chicken DT40 Tdp1-/-;hTDP1 cells + 20 nM CPT, ATP luminescence, 48 h; series mostly up to 46.2 µM
Outline: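 Chicken DT40 Tdp1-/- cells stably complemented with human TDP1 were seeded at 400 cells/well in medium containing 20 nM camptothecin, exposed to pin-transferred compounds, and grown at 37 °C for at least 48 hr. Viability was read as ATP luminescence.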
Potency is the fitted concentration of half-maximal effect; tags give direction and shape of the fitted curve.

Structure (SMILES)	Potency
COc1cc(SC)ccc1C(=O)Nc1ccc2c(c1)OCCO2	inconclusive [inhibitor, single point]
N#C/C(C(=O)N1CCOCC1)=C1/SC(Cc2ccc(F)cc2)C(=O)N1c1ccccc1 (configuration not stated)	inactive
O=C(c1ccco1)N1CCN(c2nc3c(F)cc(F)cc3s2)CC1	inconclusive [inhibitor, single point]
CC1(C)CCCN(C(=O)c2ccc3c(c2NCCO)C(=O)c2ccccc2C3=O)C1	inconclusive [inhibitor, single point]
Cc1nn(-c2ccccc2)c2nc(=O)n(-c3ccccc3)cc12	active: 8.2 µM
O=c1c2ccccc2nc(N2CCN(c3ccccc3)CC2)n1Cc1ccccc1	inconclusive [inhibitor, single point]
COC(=O)c1cn(NC(=O)c2cc(OC)c(OC)c(OC)c2)c(=O)c2ccccc12	inconclusive [inhibitor, single point]
CC(C)(CNC(=O)/C=C/c1ccc(F)cc1)CNC(=O)/C=C/c1ccc(F)cc1	inconclusive [inhibitor, single point]
COc1ccc(OC)c2sc(N(CCCN(C)C)C(=O)CCS(=O)(=O)c3ccccc3)nc12	active: 1.46 µM
Nc1nn2c(-c3ccccc3)cc(=O)[nH]c2c1N=Nc1ccc(Br)cc1	inconclusive [inhibitor, single point]
CCC(=O)N1c2ccccc2CC1C(=O)NCc1cccc(OC)c1OC (configuration not stated)	inconclusive [inhibitor, single point]
COc1cccc(-c2ccc(-c3noc(-c4ccccc4Br)n3)c(OC)n2)c1	inconclusive [inhibitor, single point]
CC(C)CC1=NN(C(=O)c2cccnc2)C(O)(C(F)(F)F)C1 (configuration not stated)	active: 4.11 µM
O=C(O)c1ccc(NS(=O)(=O)Cc2ccc(Cl)c(Cl)c2)cc1	inactive
O=C(O)/C=C/C(=O)Nc1cccc2c1-c1ccccc1C2=O	inconclusive [inhibitor, single point]
O=C1C=C(Nc2ccc(O)cc2)C(=O)c2ccccc21	active: 14.6 µM
CCC(C)NCCOc1ccc(C(C)(C)c2ccccc2)cc1 (configuration not stated)	inconclusive [inhibitor, single point]
CCCCNS(=O)(=O)c1ccc2nc(SCC(=O)c3ccccc3OC)[nH]c2c1	active: 10.3 µM
Cc1cc(NC(=O)CSc2nnc(C)n2-c2ccccc2)no1	inactive
CCN(CC(=O)Nc1c(F)cccc1F)C(=O)c1ccc(COc2ccccc2)o1	inactive
Cc1noc(C)c1COc1ccccc1C(=O)N1CCN(S(=O)(=O)c2ccccc2C(F)(F)F)CC1	inconclusive [inhibitor, single point]
COc1ccccc1C1NC(c2ccc3c(c2)OCO3)=CC(c2ccccc2O)N1 (configuration not stated)	active: 11.2 µM
CCC(=O)N/C(N)=N/c1nc(C)c2cc(C)c(C)cc2n1	inactive
Cc1onc(C(=O)NCCc2ccccc2)c1[N+](=O)[O-]	inconclusive [inhibitor, partial curve]

Structure (SMILES)	Potency
O=C1/C(=C/c2ccccn2)SC(=S)N1c1cccc(O)c1	inconclusive [inhibitor, partial curve]
COc1ccc(S(=O)(=O)c2nnn(-c3cccc(OC)c3)c2N)cc1	inconclusive [inhibitor, single point]
Nc1nc(COC(=O)CCC(=O)c2ccc(Cl)cc2)nc(Nc2ccccc2)n1	inactive
CCOC(=O)C1CCCN(c2nc3c(S(=O)(=O)c4ccc(Br)cc4)nnn3c3ccsc23)C1 (configuration not stated)	inconclusive [inhibitor, single point]
Cc1ccc(NC(=O)CCn2nc(C)cc2C)cc1	inactive
O=C(CSc1nc2ccccc2c(=O)n1-c1ccccc1)c1cccc([N+](=O)[O-])c1	inconclusive [inhibitor, partial curve]
CCCCCCOC(=O)C1(O)CC2OC1(C)n1c3ccccc3c3c4c(c5c6ccccc6n2c5c31)C(=O)NC4 (configuration not stated)	inconclusive [inhibitor, single point]
CCc1ccc(S(=O)(=O)Nc2ccc(O)c3c(=O)cc(-c4ccccc4Cl)oc23)cc1	inconclusive [inhibitor, single point]
O=C(NCc1ccncc1)c1cccc(S(=O)(=O)NCc2ccccc2)c1	inactive
CCCOc1ccccc1NC(=O)c1c(-c2ccccc2)noc1C	inconclusive [inhibitor, full curve]
NC(=O)[C@@H]1CC2(CC(c3cccc(NC(=O)CC(c4ccccc4)c4ccccc4)c3)=NO2)CN1C(=O)c1ccc(Cl)cc1 (some centres not stated)	inconclusive [inhibitor, single point]
Cc1c(-c2nc(-c3cccnc3)no2)cccc1[N+](=O)[O-]	active: 18.4 µM
O=S(=O)(c1cccc(Cl)c1)N1CCCC1	inactive
CN1c2ccc([N+](=O)[O-])cc2C(C)(C)C12C=Cc1cc(C(=O)O)ccc1O2 (configuration not stated)	inactive
CC1Cc2ccccc2N1CC(=O)Nc1ccc2c(c1)OC(F)(F)O2 (configuration not stated)	inactive
CC(=O)Nc1cncc(-c2cccc(C(=O)N3CCOCC3)c2)n1	inactive
Cc1nonc1C(=O)N/N=C/c1ccc([N+](=O)[O-])o1	active: 5.8 µM
CCn1nc(-c2ccccc2)c(-c2ccccc2)c(C(=O)Nc2ccc(S(N)(=O)=O)cc2)c1=O	inconclusive [inhibitor, single point]
O=C(NCCCN1CCc2ccccc2C1)C1CCN(c2nnc(-n3cccc3)s2)CC1	inconclusive [inhibitor, partial curve]
Cc1ccc(S(=O)(=O)N2CCN(c3ccccc3)CC2)c(C)c1	inactive
COc1ccccc1C(=O)Nc1ccc2c(c1)CCCN2C(=O)c1ccccc1	active: 16.4 µM
Cc1ccc(NC(=O)CN(C)C(=O)CSc2ccccc2F)cc1	inactive
Cc1cc(C)c(C)c(OCCCCn2cnc3ccccc3c2=O)c1	inconclusive [inhibitor, single point]
